# Test results reported in article PMC10726135.
# The list shows a part of the results. At the low end of the ranking the order means little. Measured with an extract: partners may take part in the binding.
# Molecular target: T1, HNF4alpha8 (COS-7 nuclear extract) (UniProt P41235-5)
# T1 sequence: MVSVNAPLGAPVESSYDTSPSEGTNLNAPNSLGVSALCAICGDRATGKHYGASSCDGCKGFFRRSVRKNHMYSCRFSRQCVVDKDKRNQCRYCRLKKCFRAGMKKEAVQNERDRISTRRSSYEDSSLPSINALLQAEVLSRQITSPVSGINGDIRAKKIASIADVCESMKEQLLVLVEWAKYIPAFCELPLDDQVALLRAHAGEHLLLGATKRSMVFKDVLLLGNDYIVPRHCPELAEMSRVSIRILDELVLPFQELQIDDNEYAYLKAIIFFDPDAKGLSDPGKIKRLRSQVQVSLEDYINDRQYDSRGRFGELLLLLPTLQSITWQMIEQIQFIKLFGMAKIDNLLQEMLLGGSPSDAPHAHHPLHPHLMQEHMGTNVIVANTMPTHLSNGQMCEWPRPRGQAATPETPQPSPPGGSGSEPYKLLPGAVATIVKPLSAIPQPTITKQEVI
# Assay: protein-binding microarray
# Details: COS-7 nuclear extract on double-stranded Agilent 4x180k PBM; binding buffer, salt, pH and temperature not given; high values mean tight binding; double strand, one strand shown; sequences stand for … in …GCCTAGGGAGATTAGAGTATCGGTCGA
row,Sequence,binding signal (log2 normalized intensity)
1,GGGGGCCTCTTTTAAGAAGCCAGTGTCTAT,-0.293
2,CATGAAATTGAGATAAACATGAAACAGTCA,-0.23
3,GAATGTTTTATGTGCTCCATCAGTGGTAAA,1.22
4,AAGTGTTCAGCAAATACTAATTCTCCCCCA,4.12
5,GGCCAAAGAGCAAAGGACCAAAAGATATTT,-0.232
6,CCCTGCTGTGTCACGTACCGGCTAGACAAA,-1.23
7,TAAACAAAGATACTCTCATCACTTAGGATA,-1.37
8,AGCCCAACACGGGCGAAAAAGACGCGGTCT,-1.48
9,TTTTGCCAAAGAGGTCTTATGCTCACATAC,-0.886
10,TTCTCAACAGACCCCTGAATTGGTCATAAT,3.12
11,TCAAAAGGACTCCCAGAGCATACATGCAGC,-1.37
12,GCGCATCGGGCGCCAGCGCCCCCGTGTGGC,1.2
13,GCAGCAAGGCCTGAATGAGCTCTGGGGTCC,0.921
14,GCCAATTCAGCAAACAAAGGCACTTCTCTC,-1.27
15,GCTGAGGCAGAGTTGTTTGCAGAGGGAAAG,-1.32
16,CCGCTGCTGTCTCGGGGCCAGGTGGGCTGC,-1.1
17,ACCTCCAAGAGGTTTTAGGCTATCAGACAG,-1.24
18,TGATTTGTATGATCTTGGGTATATCCTTTA,1.47
19,CAAATGAATAATCCCCTCCTGGACTTTGGT,5.55
20,TAGAAGCAGTGGGACAAAGGTCACAGGAAA,5.05
21,GGCTTATTTTAGGAGCCTCCAATCAGGACA,-1.45
22,GATGGCTATGAAGAAAAACAAGTGGAGTAG,-1.28
23,TGGCTGGGCCCTGACCTCAAGTGACCTTTG,7.77
24,TAGAAGAAAGTCTTGATAAGAAACCCAAGA,-1.31
25,GATGATTCTAAAGGCACAATCAGGGCTAAA,-1.35

row,Sequence,binding signal (log2 normalized intensity)
1,TTAACCTTTGATCTGTAAGCTCTCTGCTTA,4.45
2,CTTTGGACTTGAATTATCCTTATGGTCTCT,0.611
3,TCTGAGGGCTACTATCTGAAGACTTCCTCT,-1.2
4,GGACCTGAGGCTTTTGAGTCAATAATGGAC,1.38
5,TGAACTTCATGTGTGGTGCAGATTCCACAC,1.2
6,CCTGCATATCCTGACTGCTGACCTTTAAGC,5.56
7,GGCGGGGCGGGGCAGCAGGGAAGAGCCGGC,-1.34
8,GTACCTGCGACTGAGCCCTAAGAAATCTCC,-1.32
9,CAGACTGCTGTGTTACTAGAGCCAAGGAAG,-1.04
10,GAGGCTTCTGGCCAGGCAGAGCAGGTTCTC,-1.37
11,AAGTACATTAATATACTGTGTATACAAAGA,1.12
12,TCTCCTGTTCTCTTTATTTATTAACTGGAG,1.04
13,CTGGAACTCAAAGGTCAAATGACAGAAGCA,3.85
14,CTCAGAATCTGCCGATCACTGGCCCAGCTG,-1.31
15,AAGGGTCTCCTGGAATGCAAGACCTCAGCC,-1.28
16,GCTAAGTGGAGGATTTGGGTGATGTTTGGT,1.4
17,CACTCTTGCTATGCAAACAGACTGGCGGCG,-1.39
18,CACCTGCCTGAACAAGTCCAGTGACGGGTA,-0.921
19,TCCAGAAAAGACCAAAAAGGCTAACTTACC,-1.23
20,GAGCAGCTCTGTATTGAGATAAGCAAGACT,-1.34
21,GTCCTGCTGGTTTGCCATTTGGAGAGAGTT,1.13
22,TAGCACCTTCCAGCAGCAGGCCTGGGGGCA,0.406
23,TGTTGCAAGCAATGGAGAGGATTTTGGAAT,0.887
24,TTTGCCAAAGCATAGCAAGAGTGACCTTTG,7.18
25,ATTCCCCGACTCCTGGGTGTGAGATAAGGC,0.0557

row,Sequence,binding signal (log2 normalized intensity)
1,GCAGGAGGAGGAGCCAGTGAAGACTGAAAA,-1.44
2,TGCCTTTCCCTTATCAGGACTTTGTGATTA,3.28
3,ATTCTCCAGTCCGAAGGTCCACCCGTCCGC,2.62
4,ACATGGTCCAGTCACAGCAAAAGTAGCCTG,-1.22
5,ATTATCCCCCTATCCCAAGACATCAATTAA,3.96
6,ATCCCACCAAAACCAAGATAGTGACGGAGG,-1.37
7,TCTCACTCACCCTAAGCCCTGCTCAGGGAA,-1.15
8,ACAGGGATTACGATCCTGCCCTTCTGACCT,5.92
9,GTGGGTTTAAGTAAGCCCCCTTCCCCCCTG,5.17
10,CATTCTCAGCTGCCACTGGAAGCTCTTCTG,-1.4
11,TGTTTGCAAGTCGAGCAAGGTTCAGCACAT,0.976
12,GAATTCCATCCCAGGTCCACAGTGCACATT,2.26
13,CAATCAGCCTTAGGTATGCCCCATGGTAAG,1.49
14,AAAACCATTGCAAATTGGATGTTGAACCTC,4.51
15,GGCTTGCAAGACTGCATTCCCTAGATGTCG,-1.11
16,TACCTATGCCTTGTCTAGTTAAGTGTTCAG,1.93
17,ACAACCTTCTGAGATGGAGCATGATGAAAT,-0.174
18,TTTAAGAGCTCTGTGTCAAAAATCAGGGAC,-0.619
19,CTTTCAAACAAAAGCTGCTTCTGTAAAACT,-1.27
20,AGAGATAAGGTCTTCTACAGTCCAAAGGGC,6.2
21,ACTCAAAGAAAAGTTATGTTGGGCAACTAC,-0.931
22,CAGCCACTTTTAAAAGGTAACATCAAAGCC,-1.12
23,GCAAGGATGGGGGCAAAGGTTGACACCTAG,4.83
24,GGGGTTAACGTCCAAAGGTAATGGTCTCTC,2.47
25,AGGGTCAGTTTGAAATTAGGCAATATGAGT,0.852

row,Sequence,binding signal (log2 normalized intensity)
1,TACCTCTGATCACTACAAGCTTTGAAGGCA,-1.34
2,AGCGGAAAGAAAGGCCTTTCATACGTTTAA,-1.16
3,GAATCAAAGGTCAGGAATCGCATTGCAAAA,2.02
4,CTCTTTTCTTTGTACCGTATTTCAGACCAC,1.6
5,ACTGGTGGTTTCACAATTAAGCCAAACTTG,-1.47
6,TTTACTGAGACTTAACAGTCACTCATGAGC,-0.758
7,GTCAGATGGCCAAAGTCAACATTGATGGGG,0.929
8,GAGTGACCTGGTATTGCAAGTATTTCACCC,1.59
9,TCAGGAGTGATGCCAGAAGATTAGTGATGG,-0.853
10,CTCCAGATCAAAGGTCAAACAGTGCACTGA,5.96
11,TGCAAGACCTCAGCCCTCAGGGGCCTTCAG,-1.08
12,CACTGTGCTCTGAAAAGTGAACTGTCTGCT,0.223
13,TCTGAATAGAACTCAGGAAAGATCAGCTGA,-1.12
14,AGAGTTCCTGACAATTGGCCAAAGTTCAGT,4.64
15,CAGCAGATAAGGGCAGAGAGGCTGCCATCC,-1.41
16,GCCTGTTCACATTCCAGTGTTTCAAAGGAG,-0.17
17,ACTTTGAGGTGTTCTCTGGGGTTAGCCAAA,1.38
18,TCCAGTGGACATTGGCCCTTTGACCTTTAA,8.05
19,TCTTATCAGCCATCTCCCCAGGGAGGCCTG,-1
20,GCCCCCAGAGGTTCTAGCCCTGGTGAGTCA,2.04
21,CTTTAGGACTTTGAACCTTGGGTCTGTAAT,6.82
22,AAATTCCAACAGTTGAGAATTCCAGAGATG,-0.705
23,TATAGTCACTATACAACTAGGCTACATGAT,-1.28
24,CTGCAGGGTAGGCAGACAGGTTGGAGACGC,-1.22
25,CCTTGCATCAGAATCTGGACAGTGTAAGAT,0.241

row,Sequence,binding signal (log2 normalized intensity)
1,TCATCTGGGCTTTAGGTTTGGTGTTTAATT,1.71
2,TGCGTGTACTAAGGTCTTAAGTGTCATTAG,1.59
3,AATCTTGATAGTAGAGCTTATCAAGGCAAC,-1.26
4,TTTTTTTTTTTTTTTGAGATGGAATCTTGC,1.36
5,GACTTTTTGTAGTTTCAGCTTCTTCCTTGA,-0.249
6,CTTTTGGCTCCCTGGGGTTAAAATGTTTAC,1.95
7,GGCGGACAGCGCCGCCACCCGGTTGGCGCC,-1.1
8,TTTCAAGAACAAACAAATTTAGCAAGACTG,-1.36
9,GGAGGAAGCAGCGATGGAAGGGATGGGGTG,-1.33
10,GGGTAATAAATAAAGCCCTGGGGTAATAAA,-0.448
11,CTGGTTGGAATTCCAGTGTTCACATCTGAT,1.09
12,ACATTAAGACCACCTCTATGCACACGTTCA,-1.1
13,CTCTCTGGACTTCGGACATTCCAGGGAACA,4.52
14,GAACCAGAGAAGATTCCAGAGGGAGGGAGG,-1.24
15,GACTACCAGCCAGTAGGAGTTGGAACGGGG,-1.03
16,ACACAGACTCCAAAGAATGGAAGGCAGTGT,-1.08
17,CCCCATATCCAGTCAATCCCGTGGACTTTG,6.13
18,GGGTCAGTTTATCGAAAATCCCCCACCATT,4.11
19,CCTGCTGCACAACGACCCTTGCTCTGTTTT,3.75
20,ACCGTAAAGCCACCCCTTTCTCCTCTCTTT,1.35
21,GCCATTTCGGCACCTTCTACACAGCACCCC,2.82
22,ATTAGCTTCCCGGCTGTCACAGCCTGGTTC,-1.3
23,CAGCACCACCTGCTGGTCAGGAGACTGCTC,-1.37
24,CCTGGGAGGCAGGACCTTGGGAAAGGAGAA,-1.31
25,TGAACTGATTAGAACATTAAGTCCAAATGC,1.55

row,Sequence,binding signal (log2 normalized intensity)
1,AGTAAACAGGGCTGGGATAACCGAGGCTGA,-1.33
2,CATGCTGATGGCAAACACCTGGCCAGCGAC,-1.07
3,GGAGATAGCCTCTGGGCTGGCTTTAGCTCA,-1.28
4,TTCATCCCCACCCCCACTGCCTGACCCCAA,7.49
5,AGTTCCCAGCCCTTCACCAGAGCCGTCTGG,-1.22
6,TCCCAATTTATCTTTCCAGATTGTTCTATT,0.618
7,ACACTTAGAAAATGCCCTCAATCAAAGTGA,0.00257
8,GCTGACATGCTCTTGGAATGTTGAACCTTT,4.87
9,GGGTGGGCCTGGGGGGAGACAACTGCAACA,-1.42
10,TGATCAGAAAAGAAAGTGAGGAATGCAACC,-1.27
11,ACAGGGCTTGGGGTGGGGTTGGAGTCCAGA,2.01
12,CTGACACTGTCCCAGCTGAGATTCAGAATA,-1.35
13,TGTGTGCACAAGAGGGTGGGAGTTCAGGGG,-0.277
14,GTAGTTGCAAATATTGCAGTGTAGATTAAA,0.731
15,TTTTATGTGCTCCATCAGTGGTAAACAGAA,1.19
16,TAAAATGAGACTTCCCAGCTGCTGGTCAAA,0.0486
17,TATGGCTTATACTTGAGGTATGATGCATCC,1.31
18,TGCAAATATTGCAGTGTAGATTAAATCCTC,-0.842
19,CAATTGGGAATGTCACAGGGGCCATGCAGG,-1.03
20,AGGAGAAGAATGAAAGCCAAGGCAGATATG,-1.42
